# In PubChem BioAssay AID1508623 (National Center for Advancing Translational Sciences (NCATS), 2021):
# Screen size: about 48,000 compounds; about 450 (0.94%) were called active. The inconclusive results got no clear call from the source; some entries with a clear call stand among them for comparison. Calls follow the shape of the dose curve; as a rule, active = well fitted inhibition curve with a large enough effect; inconclusive = small, poorly fitted or top-dose-only effect; inactive = no such curve, though single readings can be large or run the other way. Potencies of inconclusive entries are doubtful fits and often do not repeat.
# Test: Primary qHTS for Identification of Small Molecule Inhibitors of Huntingtin Promoter Activity; also: nearly all actives have a fitted effect of over 50% in size
# Conditions: HEK293 HTT promoter firefly luciferase reporter (activity 0% = vehicle and -100% = no light), 24 h; activity change, negative = inhibition: at 57.5 µM (top of the series)
# How it was run: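 HEK293 cells carrying firefly luciferase reporters were seeded at 2,500 per well in Opti-MEM and cultured for 24 h. They were then treated with compounds at up to 57.5 uM final for 24 h at 37 degrees C before Dual-Glo luminescence readout.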
# Potency is read from the fitted curve at half-maximal effect; tags tell the direction and shape of the fitted curve.
Compound,Potency,"activity change, negative = inhibition"
O=C(CC1C(=O)N(c2ccc(F)cc2)C(=O)N1Cc1ccc2c(c1)OCO2)Nc1ccc(Cl)cc1 (stereo not given),"inconclusive: 39.8 µM [inhibitor, single point]",
Cc1cc(C)nc(-n2nc(C)c3c2N(Cc2ccccc2)C(=O)CC3c2ccc(Cl)cc2)n1 (stereo not given),"inconclusive: 25.1 µM [inhibitor, partial curve, poor fit]",
Cc1c(Cl)cccc1NS(=O)(=O)c1ccc(-c2cnc(C3CC3)o2)cc1,"inconclusive: 3.16 µM [inhibitor, partial curve, poor fit]",
CC(C)c1ccc(NC(=O)c2cc(S(=O)(=O)N(C)C3CCCCC3)ccc2F)cc1,"inconclusive: 28.2 µM [inhibitor, partial curve]",
CCOc1ccc(NC(=O)c2cc(S(=O)(=O)N3CCc4ccccc43)ccc2F)cc1,"inconclusive: 22.4 µM [inhibitor, partial curve, poor fit]",
O=C(c1ccc2c(c1)N(Cc1ccccc1F)C(=O)c1ccccc1S2(=O)=O)N1CCN(c2ccccn2)CC1,"inconclusive: 35.5 µM [inhibitor, single point]",
NS(=O)(=O)c1ccc(Nc2nc(OCC3CCCCC3)c3[nH]cnc3n2)cc1,,inactive: -16.3%
NC(=O)c1c(NC(=O)CS(=O)(=O)c2ccc(Cl)cc2)sc2c1CCCCC2,"inconclusive: 8.91 µM [inhibitor, partial curve]",
O=C(NCCCN1CCN(c2cccc(Cl)c2)CC1)c1sc2ncccc2c1-n1cccc1,"inconclusive: 25.1 µM [inhibitor, single point]",
Cc1cc(C=c2sc3nc4ccccc4n3c2=O)c(C)n1-c1ccccc1,"inconclusive: 0.0685 µM [inhibitor, full curve]",
Cc1ccc(-c2csc(-c3cc4c([nH]c3=O)CC(c3ccccc3)CC4=O)n2)cc1 (stereo not given),"inconclusive: 28.2 µM [inhibitor, partial curve, poor fit]",
Cc1cc2c(cc1S(=O)(=O)Nc1ccc(OC(F)(F)F)cc1)OCC(=O)N2,"inconclusive: 15.8 µM [inhibitor, partial curve]",
CCOc1ccc(CC(=O)NCCc2sc3nc(-c4ccc(F)cc4)nn3c2C)cc1,"inconclusive: 39.8 µM [inhibitor, single point]",
CCCCOc1ccc(C(=O)N(Cc2ccc(N(C)C)cc2)Cc2ccco2)cc1,"inconclusive: 28.2 µM [inhibitor, single point]",
CCc1ccc(NC(=O)CSc2nccn2-c2ccc(F)cc2)cc1,"inconclusive: 39.8 µM [inhibitor, single point]",
COc1ccc2cc1Oc1ccc(cc1)C[C@H]1c3cc(c(OC)cc3CCN1C)Oc1c(OC)c(OC)cc3c1[C@H](C2)N(C)CC3,"inconclusive: 19.3 µM [inhibitor, partial curve]",
CCC(=O)C1=C(c2ccc(F)cc2)N(C(=O)CC)n2cnnc2S1,"inconclusive: 28.2 µM [inhibitor, single point]",
CCCOc1ccc(-c2cccc(NS(=O)(=O)c3ccccc3)c2)nn1,"inconclusive: 39.8 µM [inhibitor, single point]",
Cc1ccc(CNC(=O)Nc2cc(C(=O)NCc3ccc(C(C)C)cc3)ccc2N2CCCC2)cc1,"inconclusive: 35.5 µM [inhibitor, partial curve, poor fit]",
CCCCOc1ccc(C(=O)Nc2ccc(-c3cc4ccccc4oc3=O)cc2)cc1,"inconclusive: 4.47 µM [inhibitor, full curve]",
Cc1c(Cl)cccc1NC(=O)c1ccc2c(c1)CCCN2S(C)(=O)=O,"inconclusive: 39.8 µM [inhibitor, single point]",
CCN1C(=O)c2ccccc2Sc2ccc(NC(=O)N3CCN(c4cc(C)ccc4C)CC3)cc21,"inconclusive: 8.91 µM [inhibitor, partial curve, poor fit]",
Cc1cc(C)cc(-n2c(C)cc(C(=O)C(=O)Nc3ccccc3F)c2C)c1,,inactive: 29.8%
CSc1nc(Nc2ccc(F)cc2)cc(-c2ccccc2)n1,"inconclusive: 22.4 µM [inhibitor, partial curve, poor fit]",
Nc1ncnc2c1c(-c1cnc3[nH]ccc3c1)nn2C1CCCC1,"inconclusive: 2.17 µM [inhibitor, full curve]",
COc1ccccc1CNS(=O)(=O)c1ccc(-c2cnc(C3CC3)o2)cc1,"inconclusive: 2.51 µM [inhibitor, partial curve, poor fit]",
CCCOc1ccc(-c2nonc2NC(=O)c2cc(OC)c(OC)c(OC)c2)cc1OCCC,"inconclusive: 39.8 µM [inhibitor, single point]",
Cc1cc(C)cc(NC(=O)C2CCCN2S(=O)(=O)c2ccc3c(c2)CCCC(=O)N3)c1 (stereo not given),"inconclusive: 44.7 µM [inhibitor, partial curve, poor fit]",

Compound,Potency,"activity change, negative = inhibition"
Cc1cc(C)cc(-n2ccn(Cc3ccccc3C)c(=O)c2=O)c1,"inconclusive: 10 µM [inhibitor, partial curve, poor fit]",
COc1ccc2c(c1)Cc1sc(NC(=O)c3cccc(C)c3)nc1-2,,inactive: -14.3%
CCc1ccc(NS(=O)(=O)c2cc(-c3cnc(C4CC4)o3)ccc2C)cc1,"inconclusive: 17.8 µM [inhibitor, partial curve, poor fit]",
Cc1ccc(OCC(=O)OC2=C(C(=O)c3ccccc3)N(C)S(=O)(=O)c3ccccc32)cc1,"inconclusive: 31.6 µM [inhibitor, single point]",
Cc1oc(-c2ccc(C(=O)NCCC(C)C)cc2)nc1CN1CCc2ccccc21,"inconclusive: 7.94 µM [inhibitor, single point]",
O=S(=O)(Nc1cccc(C(F)(F)F)c1)c1ccc(-c2cnc(C3CC3)o2)cc1,"inconclusive: 25.1 µM [inhibitor, partial curve, poor fit]",
COc1ccc(S(=O)(=O)c2c(C(=O)c3ccc(C)c(C)c3)cnc3ccc(F)cc23)cc1,"inconclusive: 39.8 µM [inhibitor, single point]",
CCCCCSc1nc2sc3c(c2c(=O)n1-c1ccc(OC)cc1)CCN(C(C)=O)C3,"inconclusive: 25.1 µM [inhibitor, partial curve]",
CCOC(=O)CSc1nnc2n(-c3ccccc3)c(=O)c3c4c(sc3n12)CC(C(C)(C)C)CC4 (stereo not given),"inconclusive: 20 µM [inhibitor, partial curve, poor fit]",
CCOc1ccc(CNC(=O)CCCc2cn(C)c3ccccc23)cc1OC,"inconclusive: 35.5 µM [inhibitor, partial curve, poor fit]",
Cc1ccc(-n2nc3c(=O)n(CC(=O)NCC(C)c4ccccc4)nc(C)c3c2C)cc1 (stereo not given),"inconclusive: 17.8 µM [inhibitor, partial curve, poor fit]",
COc1ccccc1Cn1cc(C(=O)c2ccc(C)cc2)c(=O)c2cc3c(cc21)OCCO3,"inconclusive: 31.6 µM [inhibitor, single point]",
COc1ccc(OC)c(S(=O)(=O)NCCc2csc(-c3cccc(F)c3)n2)c1,"inconclusive: 39.8 µM [inhibitor, single point]",
COc1cc(C2c3c(-c4ccccc4O)n[nH]c3C(=O)N2Cc2ccco2)ccc1OCC(C)C (stereo not given),"inconclusive: 31.6 µM [inhibitor, single point]",
Cc1ccc(C)c(CN2C(=O)c3ccccc3S(=O)c3ccc(C(=O)N4CCN(c5cccc(Cl)c5)CC4)cc32)c1 (stereo not given),"inconclusive: 35.5 µM [inhibitor, partial curve, poor fit]",
Cc1ccc(NC(=O)C2CCCN(S(=O)(=O)c3cccc4cccnc34)C2)cc1 (stereo not given),"inconclusive: 28.2 µM [inhibitor, partial curve]",
Cc1ccc(Cl)cc1NC(=O)c1oc2ccc(S(=O)(=O)N3CCCCC3)cc2c1C,,inactive: -15.6%
COc1cc(NC(=O)CCc2c(C)nc3cc(-c4ccccc4)nn3c2C)cc(OC)c1OC,active: 3.98 µM,
Cc1ccc2c(c1)c(=O)c(C(=O)c1ccc3c(c1)OCO3)cn2Cc1ccc(Cl)cc1,"inconclusive: 22.4 µM [inhibitor, single point]",
CSc1ccc(/C=C/c2nc3ccccc3n2S(=O)(=O)c2cccc(Cl)c2)cc1,"inconclusive: 25.1 µM [inhibitor, single point]",
CCC(CC)C(=O)Nc1nnc(SCc2cc(=O)n3cccc(C)c3n2)s1,"inconclusive: 31.6 µM [inhibitor, single point]",
O=C(NCCc1ccc(Cl)cc1)C(=O)NCC(c1ccco1)S(=O)(=O)c1ccc(Cl)cc1 (stereo not given),"inconclusive: 39.8 µM [inhibitor, partial curve, poor fit]",
CCOc1ccc(CN2C(=O)c3ccccc3Sc3ccc(C(=O)O)cc32)cc1,"inconclusive: 31.6 µM [inhibitor, partial curve]",
COc1ccc(OC)c(NS(=O)(=O)c2ccc(-c3cc(C)no3)s2)c1,"inconclusive: 17.8 µM [inhibitor, partial curve, poor fit]",
Cc1ccc(Cl)cc1Nc1nn2c(=O)c3ccc(C(=O)N4CCCC(C)C4)cc3nc2s1 (stereo not given),"inconclusive: 39.8 µM [inhibitor, single point]",
O=C(Nc1cccc(C(F)(F)F)c1)C1CCCN1S(=O)(=O)c1cccc2nsnc12 (stereo not given),"inconclusive: 17.8 µM [inhibitor, partial curve, poor fit]",
CCCN(CCC)S(=O)(=O)c1ccc(C(=O)Nc2sc3c(c2C(=O)OC)CCN(CC)C3)cc1,"inconclusive: 22.4 µM [inhibitor, partial curve, poor fit]",
